Results from the supplement of paper PMC11417369.
This is one part of the list.

System: PfSIP2 AP2 domain 1 (GST-tagged)
Experiment: gcPBM binding intensity (ln(normalized median fluorescence intensity)); higher = stronger DNA binding
Method in brief: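 The binding buffer was 1× PBS containing 1% milk, 0.2 mg/ml BSA, 0.5% salmon testes DNA and 0.03% Triton X-100. In it, GST-tagged P. falciparum DNA-binding domains expressed in E. coli were applied for 1 h to an Agilent 4 × 180k array of primer-extended double-stranded 36-bp intergenic genomic probes plus negative controls. Binding intensity, read with Alexa488 anti-GST antibody and a 488 nm scan, is the highest Masliner-normalised natural-log median intensity across replicate spots of either probe orientation.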

Compared with “ATATATAATATTGGTGGTACAAGGGTATTTTATATT [XGTACX_site8215]”, “TCATTTATTTTTCTTTGTACACAAAAGTTTTTATGT [XGTACX_site690]” is higher in “gcPBM binding intensity (ln)” value: 7.13 for the first, 7.22 for the second.

Going from TGGTATGCAATATTGGTGCGTATATATTTTAAAGGG to “TATTTTTAATTTTTTAATGGTTTAATATTTTTATAT [CACACA_negctrl_site1186]”, the “gcPBM binding intensity (ln)” value falls from 8.98 to 6.62.

First: TATTCTAAGATAAGTGGTACTTATATATAATATATA [XGTACX_site8316]
Second: TCTTTAGCTTCTTCTTTTTTTTTTTTTTTTTTTTTT [XGTACX_negctrl_site518]
The “gcPBM binding intensity (ln)” value of the first is lower: 7.03 for the first, 8.48 for the second.

First: ATATATATATATATATGTACATAAACATATATATAT [XGTACX_site1064]
Second: CTAATTGTTATTTTGTGTACTTATCATTCGAAATAT [XGTACX_site7963]
The “gcPBM binding intensity (ln)” value of the first is higher: 9.93 for the first, 7.13 for the second.

Going from “AAAAAACAAATAAGTAAACACACATATATAATATAT [CACACA_site8830]” to “TAGATGTAAGTACATACACACATATATAAATAAATA [CACACA_site8528]”, the “gcPBM binding intensity (ln)” value rises from 6.84 to 7.36.

First: ATATATATTTTAATTACACACAAAAAAAAAAAAAAA [CACACA_site4778]
Second: AAAATAATGAAATGAAAAAAAAAAATTTAGATTCTA [CACACA_negctrl_site1385]
The “gcPBM binding intensity (ln)” value of the first is higher: 7.02 for the first, 6.52 for the second.

Compared with “AAAAAAAAAAAAAATACACACATATTTTATAGGGGA [CACACA_site3261]”, “TATTTTTTGAAAAGTTCACACATCCAACTCGAGTTG [CACACA_site4412]” is lower in “gcPBM binding intensity (ln)” value: 7.19 for the first, 6.98 for the second.

First: TTATATATTTTTAGGTGTACTTTTTTTTTTTTTTTT [XGTACX_site8164]
Second: GTCATATATTTATGTACACACATATATATATTTATA [CACACA_site4911]
The “gcPBM binding intensity (ln)” value of the first is higher: 7.63 for the first, 7.13 for the second.

Compared with “AGGATATATATATTCACACACACATGGAAATATATA [CACACA_site383]”, “ATATATATTTTATATTGTACTTATTATTTTTAGGGC [XGTACX_site723]” is higher in “gcPBM binding intensity (ln)” value: 6.99 for the first, 7.35 for the second.

Compared with “TATGAATATCTATACACACACATATAAATACACGCT [CACACA_site6853]”, “TTTGTTGGTATGGTTACACACATTTAGGAAATAAAA [CACACA_site1411]” is higher in “gcPBM binding intensity (ln)” value: 7.08 for the first, 7.12 for the second.

Going from “TCTTATAAATTAAATATAAAAAAAAAAAAAAAAAAA [XGTACX_negctrl_site77]” to “AGTATTTTGTTTATCACACATATTGGAATTTTCAAT [CACACA_site4686]”, the “gcPBM binding intensity (ln)” value rises from 6.91 to 7.23.

Compared with “AAAATAATTCAATGTAGTACAATACAAATTGAGAGA [XGTACX_site5991]”, “AAAATTATACACACACGTACATATAAATAGAAATAT [XGTACX_site1753]” is higher in “gcPBM binding intensity (ln)” value: 6.76 for the first, 7.12 for the second.

Compared with “AAATGGACAGTATAAAAATGGAGAATATAAAAATTT [CACACA_negctrl_site889]”, “GGTGTTTTTCACAGATGTACACAAATAAAAAAGAAA [XGTACX_site4454]” is higher in “gcPBM binding intensity (ln)” value: 6.87 for the first, 7.16 for the second.

Compared with “TATATATAAAAAAAAAGTACATATAATATAATATTT [XGTACX_site7902]”, “CCTTTTTATTTTTGTAGTACTACATATACATATCTG [XGTACX_site7791]” is higher in “gcPBM binding intensity (ln)” value: 6.88 for the first, 7.59 for the second.

First: AAAAAAAAAAAAAATAAATAAATAAATAAATATATA [GTGCAC_negctrl_site382]
Second: ATATTAAAAAAATATAAACACACAAAAAAAAAATAT [CACACA_site8283]
The “gcPBM binding intensity (ln)” value of the first is lower: 7.04 for the first, 7.15 for the second.

Going from “TATTCAAAGAAAAACTGTACGTGTAGCAAACGTCAT [XGTACX_site7713]” to “TTTTTATAACAGCTTAGTACATATAAGAATTCTTGC [XGTACX_site5890]”, the “gcPBM binding intensity (ln)” value falls from 7.03 to 6.93.

Compared with “GACCCCATATACATATGTACATACATAATATATATA [XGTACX_site1817]”, “AATGTACGCATATACACACACATAAATAGATACGTA [CACACA_site3406]” is lower in “gcPBM binding intensity (ln)” value: 7.56 for the first, 7.15 for the second.

First: AACGAAAACACTACGTGTACCAAACGTCCTACCAAC [XGTACX_site257]
Second: AATAGTTAAATACATACATGCATTCATATAATATAT [TGCATGCA_site433]
The “gcPBM binding intensity (ln)” value of the first is lower: 6.78 for the first, 6.98 for the second.

Going from “TAATTAAGAATATATAGTACATAGTTGAAAAACTTT [XGTACX_site6359]” to “AAGATAAAAATATGCACACATATATATATATATATA [CACACA_site404]”, the “gcPBM binding intensity (ln)” value rises from 6.82 to 9.57.

First: TTCAAAAAATATATCTGTACAAATTATGTAGATGAA [XGTACX_site5522]
Second: TTTTTTTTTTTTTTTTTTTTACGATATATTTTAAAA [XGTACX_negctrl_site401]
The “gcPBM binding intensity (ln)” value of the first is lower: 6.95 for the first, 6.99 for the second.

First: TAGATCATAACAATTGCACACATTTGCATTTATATT [CACACA_site1562]
Second: TTTTTACTTATTTATTATGTACAATTTCTTCTTTCT [CACACA_negctrl_site264]
The “gcPBM binding intensity (ln)” value of the first is higher: 7.45 for the first, 6.73 for the second.

First: AAGAAAATGTAGAATTAGAAATAAATGAAGAAATGA [TGCATGCA_negctrl_site548]
Second: TATATGTTTAATTTCACACACAAATATACATTTTAA [CACACA_site4171]
The “gcPBM binding intensity (ln)” value of the first is higher: 7.15 for the first, 6.99 for the second.
